The supplement of paper PMC10681739
± gives the standard deviation of the averaged measurements. The full ranking holds about 4,000 sequences; the median of “arbitrary fluorescence units” is about 830, and the highest 2% start at about 6,500. The list lacks most of the strong results.

molecular target: RUNX1 (UniProt Q01196); assay: RUNX1 binding intensity (PBM fluorescence), RUNX1 alone (arbitrary fluorescence units); higher = stronger binding; settings: RUNX1 concentration 2 nM; ETS1 concentration 0 nM
Protocol: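 gcPBM on 36-bp genomic-derived probes (partner site mutated) containing one RUNX1 site and no ETS1 site. Recombinant human RUNX1 (2 nM) was incubated alone or with ETS1 (25 nM) and detected by anti-RUNX1 antibody fluorescence. Values are medians over 4 replicate spots (not normalised). The probes sit in constant array flanks that are not printed.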
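Further: Full-length recombinant human RUNX1 bound to double-stranded DNA microarray spots, detected with an Alexa488-labelled secondary antibody after the anti-RUNX1 primary, read as scanned spot fluorescence.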

Sequence of UniProt Q01196 (Q01196 whole entry): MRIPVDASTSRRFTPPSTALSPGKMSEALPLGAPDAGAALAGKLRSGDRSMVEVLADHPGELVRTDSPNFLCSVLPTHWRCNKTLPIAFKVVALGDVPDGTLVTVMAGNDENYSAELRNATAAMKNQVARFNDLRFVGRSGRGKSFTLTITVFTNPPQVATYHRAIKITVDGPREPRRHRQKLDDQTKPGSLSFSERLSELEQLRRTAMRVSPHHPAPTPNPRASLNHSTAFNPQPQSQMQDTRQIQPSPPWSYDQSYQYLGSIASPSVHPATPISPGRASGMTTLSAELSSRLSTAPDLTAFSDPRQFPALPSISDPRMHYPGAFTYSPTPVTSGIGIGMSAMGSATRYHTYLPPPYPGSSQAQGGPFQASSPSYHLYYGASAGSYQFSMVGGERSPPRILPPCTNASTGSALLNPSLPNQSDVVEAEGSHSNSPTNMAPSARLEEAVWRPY

| Sequence | RUNX1 binding intensity |
| --- | --- |
| CAGGTCCCCACACAAGACTGAGATCTCCGCTCTGAT | 759 |
| TGCAGCTTTCTGTCTGAGGCTTTGTGGTCCTTTCAT | 958 |
| CTGCGGTGGGCTCCGCCCAGTTCGAACTGCCTGTAG | 699 |
| CTACAAACGGCTTCGTCCTGCCTAACCACAACCTCA | 2130 |
| GTCCTCTGCGGTGGCGCCAGCCTCCTTTCAATTCCA | 2550 |
| TGCCGCGGTTCACATGCTGGTCACACCACTTGCTGA | 749 |
| AGTGGCTACCACTGCCTTCTCTTACCACAGTTCCTT | 1300 |
| GCTGTTTATCTCCGTGCCTGCGGCTGGAGCTTCTTA | 817 |
| GTCTTGCTGCCTGAGAATCTTAACCACCAGCTTGCC | 1150 |
| CCTAAGTAACCACATTCTCGCTTGCTCCTTCCACAC | 3680 |
| AGGCGCGCATGGTGTCGCAAAAACCCGCAGCGCTAC | 740 |
| CTGCCGTAAGCTGCCCCTCCACCATTTTGTGGCCCG | 851 |
| TCCTAAAGCAGGCAATAGTGAGGCTACCGCAGTGTC | 794 |
| CCATCTCCGCGCACGTCTGCAGATGCGGTAGTCGAT | 846 |
| GGCTTACGGCGGGGTACCCTCCTCTGTGGGCGGGGC | 715 |
| GCCCTCGGAGCCACAACAACCTCCACTTTCGCCTCC | 1360 |
| TACCTAGACCCTTGCCGCCCTTACCGCGGCCAGACA | 901 |
| TGATCAGGCAGGAGAAGCGCAGAGGTGGACCCGCAA | 751 |
| CCCTCCTGCGGTATTGGAGACCTGAAGCACATAGTC | 2320 |
| CAACCCGTAAGCACTAACGGAGAAACCGCAACTCGG | 4300 |
| GTTAACCACCCTCTCTATGCTTCAGATTCCTCATGT | 1600 ± 110 |

| Sequence | RUNX1 binding intensity |
| --- | --- |
| TGGCCATGGACCGCGAAGGCTTGCTCTACTGCCGCT | 683 |
| TTTAACCTGCGGCCTCCTTGCAGTCCTCCCTTGCGC | 836 |
| TGGCAGCCAGATCCTGCCTGTGGCTAGGTCAACCCA | 665 |
| CCACCCAGAAAACCACATTTAACTCCCTCCTCTACT | 3750 |
| GGGCTCCAGTTGCGCTGTCTGCGGGTCTCGCGCGCC | 655 |
| GCTGTTTGCTGCTGATAAAAACACCCCACAACTTCA | 814 |
| ACACTGGCCTGAAGGGGCGGGACCGCGAGTTAAGAG | 651 |
| GGAGCGCGCCGGCAACGCGCGGCTGCGGCCCGGGAG | 664 |
| GAATGGCGGCTGTGGCTGGGGAGAGAAAGCCGCAGA | 880 |
| CTACGCCACAGAGCGGGGCGGGAGCTGAAGCGACTC | 766 |
| CCACTTAGTGGTCAGGCCTCTGTCTCTTCGTCCCAT | 1090 |
| TCCTCTCTCTTGCTCCCTCTGGCCACAAGCTGTGCC | 1520 |
| GCCGCCTCTTTCTGTGTTGCAAACCACAGGTCCACC | 1540 |
| CTAGGCCACCGGGAGTCTCCGCAGTGGTTTTGCAAA | 729 |
| TCCCAGTTTGTGGGAAGGGTTGAGGGAATTGAGGGG | 866 |
| CGGCCTCAACCACTCAGCGACCTGAAGGGGGAAGAA | 1140 |
| GGGAGTGGGCGGTTTCCCCAGGGACGTTTTATGGTA | 800 |
| CCAACCGCTTCACCACCCCTCAGCGACTGCCGCTTC | 1130 |
| ACTGTGCGTTGAGGTCGTCCGCCATCTGCTGCAGCT | 745 |
| TCCTGTAGTTGCCGGCTGAAGTGGTAAGGTTTTTGA | 816 |
| CGGGAATTGTGGTCTCCGCCGTACGCGAGTTGTGAG | 1030 |

| Sequence | RUNX1 binding intensity |
| --- | --- |
| GTAGGAACCGCGATGTACAGACATGAAACCCAGGTC | 830 |
| CGGCGCTTGCGGGCGGGGCCGACCCCGAAAGTAAGG | 878 |
| GTCGTGGTGGTCGCGAGGGAGCCTGAAAGATGGTGG | 873 |
| AAAGCATTGCCTGCCTTGACTTAACCACAAGACAGG | 1280 |
| GAATGTCTGTGGTCACATACTCAGCTTCATGTTTAT | 1540 |
| TTGGTCAGCATGTGGCTGAAGAAGCCACAAGAAAAA | 816 |
| CCGCTGCGGCTGCGCGCTACGTCACTACGTTCGGCG | 768 |
| TAAAGCTGAAGGGGCCGGCTCTGCGGCCTGGCCGCT | 717 |
| GAGGGGAGGAGGTCTGAGCTTTTAATTGTGGTTTCA | 929 |
| ACGGAGCCGGGGAATCGCGCCGCGGCCCACAACGCC | 727 |
| CCGGATTGGTCCAGTTCCAGCGCCGCAGCCCGGCGG | 885 |
| GGCGCCACAACAGCACCTTTCTTTGTTTACTGTTCC | 1060 |
| ACTCCAGGATCGGGCCGCGTTGCCCACACACTTCGC | 818 |
| ATTTTAGCATTTTCGTGCTCGGAGACCACATGTTTG | 929 |
| GGCGTCACATGACCACGAACACTCTTCAGCTACGGC | 869 |
| TGCGACGCGGGTAAGCCGGGCGAAGGCCGTAAGCGG | 699 |
| GAGCCACCCACACACAGCTCACATGAAGAAGATAAG | 981 |
| GCCCACCCAGGGTGTGGTCGGATCCGATGCACCGGG | 715 |
| GCTCGCGCTTGCTGGGAGCCTTTGATGTGGGTTCTT | 720 |
| GCCGCGCGGGAGCCTCCGCCCTGTGGTTTTGGAGCC | 1140 |
| AGGACCGGCTCCGTAACGCGCTGCGGGGAGCGTTGG | 673 ± 1.6 |
